Data: PubChem BioAssay AID504339 (National Center for Advancing Translational Sciences (NCATS), 2011)
Out of some 390,000 compounds screened, about 17,000 (4.4%) were called active. Inconclusive means that the source gave no clear call. Such entries were picked first, then a sample of the others. Calls come from the whole dose curve; as a rule, active = well fitted inhibition curve with a large enough effect; inconclusive = small, poorly fitted or top-dose-only effect; inactive = no such curve, though single readings can be large or run the other way. A potency beside an inconclusive call is a rough fit, not a confirmed value.

target: Lysine-specific demethylase 4A (Homo sapiens) (UniProt O75164); assay: qHTS Assay for Inhibitors of JMJD2A-Tudor Domain; conditions: AlphaScreen JMJD2A-Tudor / H3K4me3 peptide binding; series mostly up to 114 µM; note: nearly all actives have a fitted effect of over 50% in size
Sequence of UniProt O75164 (O75164 whole entry, looked up, the tested form may be a part): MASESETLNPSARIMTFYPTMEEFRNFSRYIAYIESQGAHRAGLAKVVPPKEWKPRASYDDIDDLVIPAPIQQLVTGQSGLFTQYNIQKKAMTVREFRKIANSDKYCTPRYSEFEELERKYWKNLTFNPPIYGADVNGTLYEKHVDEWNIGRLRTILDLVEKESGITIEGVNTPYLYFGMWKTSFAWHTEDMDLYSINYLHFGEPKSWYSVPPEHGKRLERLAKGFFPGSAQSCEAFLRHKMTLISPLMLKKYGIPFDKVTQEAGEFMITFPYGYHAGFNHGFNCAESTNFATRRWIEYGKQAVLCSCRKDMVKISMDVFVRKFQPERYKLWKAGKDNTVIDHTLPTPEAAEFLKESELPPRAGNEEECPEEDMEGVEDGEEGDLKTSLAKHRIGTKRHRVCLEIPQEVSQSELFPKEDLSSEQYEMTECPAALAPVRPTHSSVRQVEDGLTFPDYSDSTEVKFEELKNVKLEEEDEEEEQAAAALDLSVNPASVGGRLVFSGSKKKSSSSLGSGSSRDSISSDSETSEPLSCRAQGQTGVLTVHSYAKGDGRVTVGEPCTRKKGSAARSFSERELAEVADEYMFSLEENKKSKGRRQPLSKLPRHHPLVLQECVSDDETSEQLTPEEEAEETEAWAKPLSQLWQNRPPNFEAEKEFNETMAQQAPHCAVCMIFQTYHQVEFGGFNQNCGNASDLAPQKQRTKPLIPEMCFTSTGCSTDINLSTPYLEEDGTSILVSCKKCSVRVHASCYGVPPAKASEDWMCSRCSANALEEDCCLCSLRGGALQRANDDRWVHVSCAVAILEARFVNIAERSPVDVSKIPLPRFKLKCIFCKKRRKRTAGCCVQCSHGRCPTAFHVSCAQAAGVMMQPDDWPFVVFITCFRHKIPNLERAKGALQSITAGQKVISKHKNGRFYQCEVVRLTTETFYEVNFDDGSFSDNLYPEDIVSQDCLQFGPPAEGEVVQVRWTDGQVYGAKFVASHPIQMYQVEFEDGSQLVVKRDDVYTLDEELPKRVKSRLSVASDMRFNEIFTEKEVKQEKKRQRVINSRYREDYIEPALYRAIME
Potency is the fitted concentration of half-maximal effect; tags give direction and shape of the fitted curve.

| SMILES | Potency |
| --- | --- |
| O=C(CCN1C(=O)c2ccccc2C1=O)N1CCOCC1 | inconclusive: 89.1 µM [inhibitor, single point] |
| COc1ccc(CCNc2oc(-c3ccco3)nc2C#N)cc1 | inconclusive: 56.2 µM [inhibitor, partial curve, poor fit] |
| COc1cc(NC(=O)c2cc3sccc3n2C)cc(OC)c1 | inactive |
| O=C(O)c1ccc(CN2C(=O)c3cccc4c([N+](=O)[O-])ccc(c34)C2=O)cc1 | inconclusive: 3.16 µM [inhibitor, single point] |
| CCNCCC(CCC(C)C)c1ccc2c(c1)OCO2 (stereo not drawn) | inconclusive: 56.2 µM [inhibitor, partial curve] |
| O=C(NCCCN1CCOCC1)c1ccc(Sc2cccc(Cl)c2)c([N+](=O)[O-])c1 | inconclusive: 44.7 µM [inhibitor, partial curve] |
| CCOC(=O)c1cc(-c2ccccc2)sc1NC(=O)c1ccc(OC)cc1 | inconclusive: 79.4 µM [inhibitor, single point] |
| C/C(=N\NC(=O)c1c([N+](=O)[O-])c(C)nn1C)c1ccc(NC(=O)C2CCCC2)cc1 | inactive |
| O=C(NC1(C(F)(F)F)C(=O)Nc2c1c(=O)[nH]c(=O)n2CCc1ccccc1)c1ccc(Cl)cc1 (stereo not drawn) | inactive |
| Cc1ccc(NC2=C(N3CCOCC3)C(=O)c3ccccc3C2=O)cc1 | active: 14.1 µM |
| O=P(c1ccccc1)(c1ccccc1)c1nc(-c2ccc(Cl)cc2)oc1N1CCOCC1 | inconclusive: 12.6 µM [inhibitor, partial curve] |
| O=c1cc(-c2ccc(O)cc2)oc2c(O)c(O)c(O)c(O)c12 | active: 39.8 µM |
| Cc1ccc(/C=N/n2c(-c3ccncc3)n[nH]c2=S)s1 | active: 3.55 µM |
| Fc1ccc(COc2cccc(-c3n[nH]c(=S)o3)c2)cc1 | inconclusive: 100 µM [inhibitor, single point] |
| C/C(=N\NS(=O)(=O)c1ccc([N+](=O)[O-])cc1)c1cccs1 | inconclusive: 17.8 µM [inhibitor, full curve] |
| CCCCC1=CC2=C(c3ccco3)C(=O)C(C)(OC(=O)c3ccc(OC)cc3)C(=O)C2=CN1C1CCCCC1 (stereo not drawn) | inconclusive: 39.8 µM [inhibitor, partial curve] |
| CC(C)(C)c1ccc(OCCCCCCN2CCNCC2)cc1 | inactive |
| Cc1ccn2c(NC3CCCCC3)c(-c3ccc(C)o3)nc2c1 | inconclusive: 89.1 µM [inhibitor, partial curve] |
| O=C(O)c1ccc(NC(=O)C2CC=CCC2C(=O)O)cc1 (stereo not drawn) | inconclusive: 89.1 µM [inhibitor, single point] |
| Cc1cccc2c1NC(=O)C2=Nc1ccc(Cl)cc1 | inactive |
| COCCn1c(-c2cccs2)csc1=Nc1cccnc1 | inconclusive: 56.2 µM [inhibitor, partial curve] |
| COc1ccc(CCNS(=O)(=O)c2cc3c4c(c2)CCN4C(=O)CC3)cc1OC | inconclusive: 2.82 µM [inhibitor, partial curve, poor fit] |
| CC1(c2ccc(Cl)cc2)NC(=O)N(CC(=O)N2CCN(S(=O)(=O)c3ccccc3)CC2)C1=O (stereo not drawn) | inactive |
| Oc1ccc(/C=C/c2nc(-c3ccccc3O)n(-c3ccccc3)n2)c(O)c1 | inconclusive: 56.2 µM [inhibitor, partial curve] |
| Cc1oc2c(C)c3oc(=O)c(CCC(=O)N4C[C@H]5C[C@@H](C4)c4cccc(=O)n4C5)c(C)c3cc2c1C | inconclusive: 50.1 µM [inhibitor, partial curve] |

| SMILES | Potency |
| --- | --- |
| CCc1cccc(CC)c1NC(=S)/C(=C(\[O-])c1ccc(Cl)s1)[n+]1ccccc1 | inconclusive: 70.8 µM [inhibitor, single point] |
| CCC(C)Nc1nc(Cl)nc(N(C#N)CN2C(=O)c3ccccc3S2(=O)=O)n1 (stereo not drawn) | inconclusive: 63.1 µM [inhibitor, single point] |
| Cc1ccccc1NC(=S)NC(=O)c1cc(-c2ccccc2)nc2ccccc12 | inconclusive: 4.47 µM [inhibitor, single point] |
| COc1cc(C(c2c(C)[nH][nH]c2=O)c2c(C)[nH][nH]c2=O)cc([N+](=O)[O-])c1O | active: 44.7 µM |
| COc1ccc(CCNc2oc(COc3ccccc3Cl)nc2C#N)cc1OC | inconclusive: 39.8 µM [inhibitor, partial curve] |
| Cc1cccc(NC(=O)Cc2coc3ccc4ccccc4c23)n1 | inconclusive: 50.1 µM [inhibitor, partial curve] |
| CC(C)(C)c1ccc(S(=O)(=O)N2CCN(CC(=O)NC(=O)NC3CCCCC3)CC2)cc1 | inactive |
| COc1ccc(NC(=S)c2ccc3ccccc3n2)cc1 | active: 39.8 µM |
| Cc1cc(/C=C\c2ccccc2)nc2ccccc12 | inactive |
| CCc1ccccc1N(CC(=O)NC1CCCC1)C(=O)CNC(=O)c1cccs1 | inactive |
| O=C(Cn1sc2ccccc2c1=O)NC12CC3CC(CC(C3)C1)C2 | active: 2.82 µM |
| Cc1ccccc1-n1nc(-c2ccc(N)cc2)cc1N | inconclusive: 79.4 µM [inhibitor, single point] |
| Cc1nn(C)cc1C(C)NC(=O)c1cc(COc2ccc(F)c(F)c2)on1 (stereo not drawn) | inactive |
| Cc1cc(/C=N/O)c(C)n1-c1ccc(Br)cc1 | inconclusive: 11.2 µM [inhibitor, full curve] |
| Cc1ccc(-c2ccc(/C=C(\C#N)C(N)=S)n2C)cc1 | inconclusive: 44.7 µM [inhibitor, partial curve] |
| CCOC(=O)c1c(NC(=O)COc2cc(C)ccc2C(C)C)sc2c1CCCC2 | inactive |
| COc1cccc(CN2CCc3nc(Nc4ccc5c(c4)OCCO5)ncc3C2)c1OC | active: 56.2 µM |
| Nc1nc(SCC(=O)N2CCCCC2)[nH]c(=O)c1NC(=O)c1cccs1 | inconclusive: 17.8 µM [inhibitor, partial curve] |
| O=[N+]([O-])c1ccc(/C=N/Nc2nc(NCc3ccccc3)nc(N3CCOCC3)n2)cc1 | inactive |
| Cc1nnc(NC(=O)CSc2ccc3nnc(-c4ccccn4)n3n2)s1 | active: 79.4 µM |
| Cc1cccc(OCCC(=O)OC(C)C(=O)Nc2ccc(Cl)cn2)c1 (stereo not drawn) | inconclusive: 39.8 µM [inhibitor, single point] |
| Cc1ccc(N2CCN(/N=C/c3ccncc3)CC2)cc1 | inconclusive: 7.08 µM [inhibitor, partial curve] |
| CCCCCNC(=O)c1cc2c(=O)n3ccccc3nc2n1C | inconclusive: 22.4 µM [inhibitor, full curve] |
| COc1cccc(C(=O)Nc2ccccc2N2CCCC2)c1 | inconclusive: 56.2 µM [inhibitor, partial curve] |
| COc1cc(CC(=O)O)ccc1OCc1ccccc1 | inactive |

| SMILES | Potency |
| --- | --- |
| C/C=C\C1=CCCC1Nc1ncnc2ccc(-c3c(C)noc3C)cc12 (stereo not drawn) | inconclusive: 79.4 µM [inhibitor, partial curve] |
| Cc1ccc(Nc2n[nH]c(=S)s2)cc1F | inactive |
| S=C(Nc1cccnc1)N1CCCCC1 | inactive |
| N/C(=N\OC(=O)c1cc([N+](=O)[O-])ccc1Cl)c1ccccn1 | inconclusive: 79.4 µM [inhibitor, partial curve] |
| CC(=O)c1cc(-c2ccccc2)n(CC(=O)NCCc2ccc(C)cc2)c1C | inactive |
| Cc1cccc(-n2c(C)c(-c3ccccc3)[nH]c2=S)c1 | active: 35.5 µM |
| Nc1cc(OCc2ccccc2)ccc1OCc1ccccc1 | inconclusive: 22.4 µM [inhibitor, partial curve] |
| CCOC(=O)CN1NC2(CCCCC2)NC1=S | active: 17.8 µM |
| COc1cccc(C(=O)OCC(=O)Nc2sc3c(c2C(N)=O)CCC3)c1O | inconclusive: 14.1 µM [inhibitor, partial curve] |
| Cc1ccc(OCC(=O)O/N=C(\N)Cc2ccc(Cl)cc2)cc1 | inconclusive: 3.55 µM [inhibitor, single point] |
| CC1CN(C(=O)COC(=O)c2cccc(S(=O)(=O)N3CCc4ccccc43)c2)CC(C)O1 (stereo not drawn) | inactive |
| Cc1nc(N2CCCC2)c2c(C(=O)Nc3ccc(Br)cc3F)c(C)oc2n1 | inactive |
| CS/C(=C\C(=O)c1ccco1)Nc1ccccc1Cl | inconclusive: 56.2 µM [inhibitor, partial curve] |
| Oc1c(C(c2ccccc2Cl)N2CCN(Cc3ccccc3)CC2)sc2nc(-c3ccco3)nn12 (stereo not drawn) | inconclusive: 63.1 µM [inhibitor, partial curve, poor fit] |
| CCOC(=O)c1ccc(NC(=S)NCCc2ccc(OC)c(OC)c2)cc1 | inactive |
| Cc1ccc(S(=O)(=O)N2CCN(C(=O)COC(=O)c3cncc(Br)c3)CC2)c(C)c1 | inactive |
| O=C(NCCCN1CCOCC1)C1CCN(S(=O)(=O)c2ccccc2)CC1 | inactive |
| Cc1cc(C)n(CC(=O)N/N=C/c2cc([N+](=O)[O-])ccc2O)n1 | inconclusive: 70.8 µM [inhibitor, single point] |
| O=C(O)Cc1sc(N/N=C\c2ccccc2)nc1-c1ccccc1 | inconclusive: 50.1 µM [inhibitor, single point] |
| COc1cc(NC(=O)Cc2ccc(F)cc2)cc(OC)c1OC | inactive |
| O=C(c1ccncc1)N1N=C(c2ccc(Br)cc2)CC1c1ccccc1O (stereo not drawn) | inconclusive: 25.1 µM [inhibitor, full curve] |
| Cc1cccc(C(=O)OC(C)C(=O)Nc2ccc(S(=O)(=O)Nc3ncccn3)cc2)c1C (stereo not drawn) | inactive |
| CC(=O)N1N=C(c2ccccc2)CC1c1cn(Cc2ccccc2)c2ccccc12 (stereo not drawn) | inconclusive: 10 µM [inhibitor, full curve, poor fit] |
